In the supplement of paper PMC11417369:
± gives the standard deviation of the averaged measurements. The list shows a part of the results.

test system: PfAP2-I AP2 domain 3 (GST-tagged); assay: gcPBM binding intensity (ln(normalized median fluorescence intensity)); higher = stronger DNA binding
Outline: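 For binding intensity, the highest Masliner-normalised natural-log median intensity across replicate spots of either probe orientation was taken. Protein bound to the array was stained with Alexa488 anti-GST antibody and scanned at 488 nm. The protein, GST-tagged P. falciparum DNA-binding domains from E. coli at about 25 μg on average, had been applied for 1 h to an Agilent 4 × 180k array of primer-extended double-stranded 36-bp intergenic genomic probes and negative controls.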

Sequence | gcPBM binding intensity (ln)
AAAAAAAAATATATATATATATATATATTTATGTAT [GTGCAC_negctrl_site483] | 7.92 ± 0.5
AAAAAAAATAAAAATAGTACTCAAAAAATTATGAAT [XGTACX_site3073] | 7.58 ± 0.43
ATATTAATTTCTTATGCATGTTCTACCAAATTGTAT [TGCATGCA_site38] | 8.16 ± 0.93
TTATTTATTTTTATATGTACACAAAAAAAAAAAAAA [XGTACX_site1459] | 8.29 ± 0.35
AATATATATAACGTTGGTACACAAAAATTATTAAAT [XGTACX_site8572] | 7.97 ± 0.61
TTTTTTTTTTTTTTAACACACATATATATATTTTTC [CACACA_site1922] | 8.19 ± 0.35
CCTCATCCACTATGCACACAAAAAAGAAATACACTA [CACACA_site3422] | 9.295 ± 0.092
TTCTCAAATATAATAAAATTATAAAGTGACCTAACT [GTGCAC_negctrl_site493] | 7.53 ± 0.47
TAATGGATTATACGTGCACACATATATACAAATAAA [CACACA_site8116] | 10.97 ± 0.035
TTTGGAATATAATATTGTACATATTATATATATATA [XGTACX_site3187] | 9.01 ± 0.28
TTTTTTTTTAAATATACACACACATTTATACATATA [CACACA_site9122] | 7.85 ± 0.62
AATGTATTTATTTTTTGTACATATCGTGTGTGTATT [XGTACX_site1009] | 7.95 ± 0.35
TTCTATTATGTGACTCAATTCTTCATGGGTGTATAA [TGCATGCA_negctrl_site140] | 7.68 ± 0.38
GGAAAGACATTACACAGTACCCAGGAAATCTACGGA [XGTACX_site2002] | 7.61 ± 0.69
TAATATTTATTCTATTGTACATAAAATATATATATA [XGTACX_site7132] | 8.73 ± 0.35
ATAAATAAAAAACACACACACACACCCAAAAAAAAA [CACACA_site2624] | 8.33 ± 0.45
ATTATATATGTATAAATATGCTATATATATATATAT [GTGCAC_negctrl_site430] | 9.4 ± 0.58
TCAACATTTAAAAATAGTACTCATAAACCTTTCGAA [XGTACX_site4111] | 7.42 ± 0.46
TATACATATGTATGCACACATACATACACATAGAAT [CACACA_site3480] | 8.8 ± 0.13
TATATTATTTAAAAAGTGCAGTTACAAGATGAACCT [GTGCAC_site9641] | 9.27 ± 0.13
ATTGATTTTTAATATACACACATAAGGACCACAAAA [CACACA_site4344] | 8.48 ± 0.26
AGAGAATATTTCCACACATGCAAATGTTATATGTAA [TGCATGCA_site282] | 10.4 ± 0.7

Sequence | gcPBM binding intensity (ln)
AATTATATTAATTCTTCATTACATTTTAAAATATTA [XGTACX_negctrl_site510] | 7.64 ± 0.69
AATACGCATTTTAGTACACACTTAAAAAGTTATTTT [CACACA_site7401] | 8.12 ± 0.3
TTATAATATAAAAATAAATAAATAAATAAATAAATA [CACACA_negctrl_site1587] | 8.21 ± 0.84
TGCTATTATTTATGTACACACCAATTTATTTATAAT [CACACA_site6029] | 8.39 ± 0.24
TTCGTTATATTTTGATGTACTGATTCATATATATAT [XGTACX_site1835] | 8.96 ± 0.085
TATATATAATATACATGTACAAATGTATTTAAAAAT [XGTACX_site6090] | 7.66 ± 0.56
TCATATTTGCCTTTTTATTTAGAACACAAAAAAAAA [CACACA_negctrl_site1152] | 7.91 ± 0.24
CAAAAAAAGAAAGCTACACACATTTATGTGCTATAT [CACACA_site2777] | 8.26 ± 0.28
AGAAAATACACGCATACACACACACCCACCCACATA [CACACA_site8115] | 8.15 ± 0.58
ATTCGGATATATATCACACATAACTTTAATAATATA [CACACA_site5720] | 7.76 ± 0.59
ATTATAATAGTTAAATGTACACACTAACTACATGGA [XGTACX_site6918] | 7.82 ± 0.48
AATTAAAAATTCAAGTGTACTTTTATATTATTATAC [XGTACX_site4106] | 7.91 ± 0.23
TAAATAGCCAAACGCACACCCACAAAAAAAAAAAAA [CACACA_site1554] | 8.83 ± 0.17
AAAATAACGAGTCAAACACACATATATATATATATA [CACACA_site2039] | 9.28 ± 0.17
AGCATAAACAATTTTTGAAAAAATATACACTCATAG [CACACA_negctrl_site890] | 7.76 ± 0.6
TATATATATATATACACACACACAAAAAAAAAAAAA [CACACA_site1505] | 9.58 ± 0.35
TCTACAAGGCTTGATCGTACAATTTGAATGTATTTG [XGTACX_site7698] | 7.3 ± 0.49
CTCAACATATACGTAACACACATATATATATATATA [CACACA_site3838] | 9.28 ± 0.53
TATGCAAGGAACCACACACACACACCCAAATGTATA [CACACA_site750] | 7.75 ± 0.56
AGATTATATATATGTATATATGTATATATTTATATA [CACACA_negctrl_site1797] | 7.25 ± 0.23
TATCTCTCTTTCTGCTGTACATAAAAATTATATAAT [XGTACX_site5961] | 8.41 ± 0.35
AACATATTTTTAAATACACACACATAAAAAAAAAAA [CACACA_site8279] | 8.06 ± 0.58

Sequence | gcPBM binding intensity (ln)
GTTTGGTGGTGTTTTGGTACGTACGGGGGTGTATGT [XGTACX_site1211] | 9.78 ± 0.057
TCTTTGTACTTTCACATGTACACCCAAATGGAAATT [CACACA_negctrl_site1442] | 8.5 ± 0.18
AAATAAATCTTATGCACACAAATAATTAATGAAACA [CACACA_site5011] | 9.18 ± 0.17
ATATTTATGGAATATACACACATGTATAATTACATA [CACACA_site7045] | 7.63 ± 0.52
AGGACTAATATTTGAACACACATATAATAAATACAT [CACACA_site6068] | 7.67 ± 0.81
AAGACCATATGAATAATGCACACGTTTTAAAATATT [CACACA_site2323] | 10.5 ± 0.52
TTTCCATTTTCTCTATGTACATAAAAATGAGATAAA [XGTACX_site5689] | 8.03 ± 0.26
CACACGCACGGACACACACACAAAAAAAAAAAGAAA [CACACA_site6378] | 8.455 ± 0.035
ATATGTATTTATGTATTTATGTATTTTTATATTTTT [CACACA_negctrl_site595] | 7.57 ± 0.64
AAAAAAAAAAAACACACACACACATTCAATATAAAA [CACACA_site40] | 7.93 ± 0.27
TAAATGTTAAAATTCACACAAATATGTGCGGAATAT [CACACA_site5055] | 8.41 ± 0.3
GGAATTTTTATTCGAAGTACTGTTGTGAGTAATAAA [XGTACX_site8599] | 7.89 ± 0.5
ACCCATTTGATAATAATGCACACCACATATATTTAT [CACACA_site3061] | 11 ± 0.63
TGCAAGGAACAACACACACACACATAAATGTATATA [CACACA_site8149] | 7.78 ± 0.36
ATATATAATATATACACACACATGTATATATAAATA [CACACA_site1968] | 7.68 ± 0.43
TTTGACTAAATTAAATATTAAAGTATGGATTATTCT [CACACA_negctrl_site833] | 7.37 ± 0.69
ATATTATTTTATGCTACACACATTTTCTCTTATAAA [CACACA_site943] | 8.32 ± 0.26
TTCAAACATATTAATTGTACATACAACAAAACCATG [XGTACX_site5149] | 7.75 ± 0.42
AATATATTTTAGAGTTTTATATATTTTATGCATATA [GTGCAC_negctrl_site710] | 7.67 ± 0.51
TGGAAAATAAAGTACGCACACAAAAATTCTCTTCAT [CACACA_site2327] | 8.13 ± 0.38
TACAGATATTTTATTTCACACATTTTATCATTTTCT [CACACA_site5701] | 7.79 ± 0.5
TTCAAAAAAGGAAAGTTGCACTTGATACGCTTATTA [GTGCAC_site9411] | 8.23 ± 0.57

Sequence | gcPBM binding intensity (ln)
ATAAGTAATATAATATGTACATATATATATATATAT [XGTACX_site3818] | 9.3 ± 0.52
AAGAAATAAATACATACACACATATATATATATATA [CACACA_site3362] | 9.38 ± 0.38
AGAATAATTTTATCGGTACACACTGTATGCATAATA [CACACA_site374] | 8.27 ± 0.5
ATGCAAAATAAAGAAGCACACAAAAATGAAATATAT [CACACA_site9217] | 8.23 ± 0.91
GGAAATTTCAATATTTGTACATATATATATATATAT [XGTACX_site3222] | 9.56 ± 0.6
TATATATTGTTATAATGTACATAATATTTTATCTGC [XGTACX_site4983] | 7.66 ± 0.53
TAAAAGTTCACCTGTACACACATATATATATGTACA [CACACA_site1707] | 8 ± 0.38
TTTTTTATTTTTTGTTATATTTATAATAATTTATGA [XGTACX_negctrl_site260] | 7.44 ± 0.67
TACTTTACACATATTTTTAATTATTCTGAATTCAAA [GTGCAC_negctrl_site253] | 7.79 ± 0.63
ATATATATATATGTAGTGCATTTTATATATAATATT | 9.875 ± 0.035
TATTTATATTCATAATGTACATTCAATTATTGTTTT [XGTACX_site4191] | 7.76 ± 0.52
AAATATTAAATGACAAAAAAAAAAAAAAAAGGGGTT [CACACA_negctrl_site951] | 7.59 ± 0.69
TTCTTTATTTTTTCTACACACATTATATATTCAAAG [CACACA_site5866] | 8.23 ± 0.61
TATTTTGAAAATAAAAGTACAAATTTTATATTTAAA [XGTACX_site3238] | 7.45 ± 0.55
TATAATATATTTTAATGTACGTACATCCCGATTAAT [XGTACX_site7651] | 8.28 ± 0.13
ATTTTTTTTTCTTAATGTACATACCAAAAAGAAAGA [XGTACX_site5471] | 7.98 ± 0.51
TATTAATATATATGTTGTACAAGTTTTTTTTTTTTT [XGTACX_site5865] | 7.92 ± 0.12
GATAAAATATGTTGCCGTACATATTCATATACTTAA [XGTACX_site4776] | 7.81 ± 0.58
TTTGTCTGCATACGCACACACGTGTACCATCTTATG [CACACA_site4784] | 8.71 ± 0.63
ATATAAAATAATACATGTACATATTATATATATATA [XGTACX_site1082] | 9.1 ± 0.14
TATATACGCATTTTTATACACACTTGTTTTATAAAA [CACACA_site727] | 8.02 ± 0.33
TTCTATATTTCTTTTTGTACATATAAATTCAAATAA [XGTACX_site2476] | 8.21 ± 0.45
